Source: the RNAGym collection of RNA variant scans (doi:10.1093/nar/gkz1192)
The source gives no read counts; variants with many changes may rest on few reads.

B1: CPEB3 Ribozyme (parent)
chain: UAACAGGGGGCCACAGCAGAAGCGUUCACGUCGCAGCCCCUGUCAGAUUCUGGUGAAUCUGCGAAUUCUGCUGUAUAUCUC

Variants of: B1
Experiment: self-cleavage, relative activity (ratio to wild type); higher = more cleavage; in vitro, sequencing
How it was run: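 CPEB3 self-cleaving ribozyme mutant libraries were made by rounds of error-prone PCR, barcoded, and transcribed in vitro with T7 RNA polymerase for 5 hours at 37°C. Cleavage occurred during transcription and a 15 min DNase I step before EDTA stop. RNAs were reverse transcribed with template switching and Illumina-sequenced, with DNA sequencing mapping barcodes to variants. Relative activity is the variant's cleaved/total read fraction divided by wild type's (minimum 5 reads), averaged across three batches.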

With UAACAGGGGGCCACAGCACAAGCGUCCACCGCGCAGCCCCUGUCAGAUUCUGGUGAAUCUGCGAACUCUGCUGUAUAUCUC [G19C U26C G30C U31G U66C] as the variant, how does the self-cleavage read?
Its self-cleavage is 0.15.

With UAACAGGGGGCCACAGCACAAGCGUUCACGUCGCAGCCCCCGUCGGAUUCUGGUGAAUCUGCGAAUUCUGCUGUAUAUCUC [G19C U41C A45G] as the variant, how does the self-cleavage read?
Its self-cleavage is 0.22.

With UAACAGGGGGCCACAGCACAAGCGUUCACGUCGCAGCCCCCGCCAGAUUCUGGUGAAGCUGCGAAUUCUGCUGUAUAUCCC [G19C U41C U43C U58G U80C] as the variant, how does the self-cleavage read?
The self-cleavage was 0.05.

With UAACAGGGGGCCACAGCAUGAGCGUACUCGUCGCAGCCCCCGUCAGAUUCUGGCGAAUCUGCGAAUUGUGCUGUAUAUCUC [G19U A20G U26A A28U U41C U54C C68G] as the variant, how does the self-cleavage read?
Its self-cleavage is 0.08.

For UAACAGGGGGCCACAGCAUAGGCGUUCACGUCGCAGCCCCUGUCAGAUUCUGGUGAAUAUGCGAAUUCUGCUGUAUAUCUC [G19U A21G C59A], which self-cleavage is on record?
The self-cleavage was 0.24.

For UAACAGGGGGCCACAGCAUAGGCGUUCACGUCGCAGCCCCUGUCAGAUUCUGGUGAAUCUGCGAAUUCUGGUGUAUAUCUC [G19U A21G C71G], which self-cleavage is on record?
Its self-cleavage is 0.08.

Which self-cleavage does the source give for UAACAGGGGGCCACAGCAUAGGCGUGCACGUCGCAGCCCCUGUCGGAUUCUUGUGAAUCUGCGAAUUCUGCUGUAUAUCUC [G19U A21G U26G A45G G52U] here?
The self-cleavage was 0.19.

Which self-cleavage does the source give for UAACAGGGGGCCACAGCAUAUGCGUUCACGUAGCAGCCCCUGUCAAAUUCUGGUGAAUCUGCGAACUCUGCUGUAUAUCUC [G19U A21U C32A G46A U66C] here?
The self-cleavage was 0.06.

For UAACAGGGGGCCACAGCAUAUGCGCUCACGUCGCAGCCCCUGUCAGAUUCUGGGGAAUCUGCGAAUUCUGCUGUAUAUCUC [G19U A21U U25C U54G], which self-cleavage is on record?
The self-cleavage was 0.16.

With UAACAGGGGGCCACAGCAUAAGCGUUCGCGUCGCACCCCCUGUCAGAUUCUGGUGAAUCUGCGAAUUCUGCUGUAUAUCUC [G19U A28G G36C] as the variant, how does the self-cleavage read?
The self-cleavage was 0.14.

With UAACAGGGGGCCACAGCAUAAGCGUUCGCGUCGCAGCCCCUGUCAGAUUCUGGUGAAUCCGCGAAUUCUGCUGUAUAUCUC [G19U A28G U60C] as the variant, how does the self-cleavage read?
The self-cleavage was 0.06.

For UAACAGGGGGCCACAGCAUAAGCGUUCACGUCGCGGCCCCUGUCAGAUCCUGGUGAAUCCGCGAAUUCUGCUGUACAUCUC [G19U A35G U49C U60C U76C], which self-cleavage is on record?
The self-cleavage was 0.13.

For UAACAGGGGGCCACAGCAUAAGCGUUCACGUCGCGGCCCCUGUCAGAUUCUGGUGAAUCUGCGAAUUCUGCCGUAUAUCUC [G19U A35G U72C], which self-cleavage is on record?
The self-cleavage was 0.47.

Which self-cleavage does the source give for UAACAGGGGGCCACAGCAUAAGCGUUCACGUCGCUGCCCCUGUCAGAUUCUGGUGAAUCAGCGAAUUCUGCUGUAUAUCUC [G19U A35U U60A] here?
The self-cleavage was 0.09.

Which self-cleavage does the source give for UAACAGGGGGCCACAGCAUAAGCGUUCACGUCGCAGCCCCUGUCAGGUUCUGGUGAAUCUGCCAAUUCUGCUGUAUAUCUC [G19U A47G G63C] here?
Its self-cleavage is 0.16.

For UAACAGGGGGCCACAGCAUAAGCGUUCAUGUCGCAGCCCCUGCCAGAUUCUGGUGAAUCUGCGAAUUCUGCUGCAUAUCAC [G19U C29U U43C U74C U80A], which self-cleavage is on record?
The self-cleavage was 0.04.

With UAACAGGGGGCCACAGCAUAAGCGUUCACGUCGCAACCCCAGUCAGAUUCUGGUGAAUCUGUGAAUUCUGCUGUAUAUCUC [G19U G36A U41A C62U] as the variant, how does the self-cleavage read?
The self-cleavage was 0.07.

Which self-cleavage does the source give for UAACAGGGGGCCACAGCAUAAGCGUUCACGUCGCAGCCCCUGUCAGAUUCUGGUAAAUCUGCGAAUUCUGCUGUAUGUCUC [G19U G55A A77G] here?
Its self-cleavage is 0.15.

Which self-cleavage does the source give for UAACAGGGGGCCACAGCAUAAGCGCUCACGUCGCAGCCCCUGUCAGAUUCUGGUGAAUCUGCGAUUUAUGCUGUAUAUCUC [G19U U25C A65U C68A] here?
The self-cleavage was 0.15.

For UAACAGGGGGCCACAGCAUAAGCGCCCACGUCGCAGCCCCUGUCAGAUUCUGGUGAUCCUGCGAAUUCUGCUGUAUAUCCC [G19U U25C U26C A57U U58C U80C], which self-cleavage is on record?
Its self-cleavage is 0.07.

With UAACAGGGGGCCACAGCAUAAGCGGUCACGUCGCAGCCCCUGUCAGAUUCUGGUGAAUCUGCGAAUUCUGCUGUAUGUCUC [G19U U25G A77G] as the variant, how does the self-cleavage read?
Its self-cleavage is 0.07.

Which self-cleavage does the source give for UAACAGGGGGCCACAGCAUAAGCGGUCACGUCGCAGCCCCUGUCAGAUUCUGGCGAACCUGCGAAUUCAGCUGUAUAUCUC [G19U U25G U54C U58C U69A] here?
The self-cleavage was 0.13.

With UAACAGGGGGCCACAGCAUAAGCGUCCACGUCGCAGCCCCUGUCCGAUUCUGGUGAAUCUGCGAAUUCUGCUGUAUAUCUC [G19U U26C A45C] as the variant, how does the self-cleavage read?
Its self-cleavage is 0.15.

With UAACAGGGGGCCACAGCAUAAGCGUCCACGUCGCAGCCCCUGUCAGAUUCUGGUGAAUCUGCGUAUUCCGCAGUAUAUCUC [G19U U26C A64U U69C U72A] as the variant, how does the self-cleavage read?
Its self-cleavage is 0.09.

With UAACAGGGGGCCACAGCAUAAGCGUUCACGACGCAGCCCCUGUCAGAUUCUGGUGAAUCUGUGAAUUCUGCUGUAUAUCUC [G19U U31A C62U] as the variant, how does the self-cleavage read?
Its self-cleavage is 0.1.

With UAACAGGGGGCCACAGCAUAAGCGUUCACGUCGCAGCCCCUGUCAGAUACUGGUGAAUCUGCGAAUUCUGCAGUAUAUCUC [G19U U49A U72A] as the variant, how does the self-cleavage read?
The self-cleavage was 0.17.

With UAACAGGGGGCCACAGCAGCGGCGUUCACGUCGCUGCCCCUGUCAGAUUCUGGCGAAUCUGCGAAUUCUGCUGUAUAUCUC [A20C A21G A35U U54C] as the variant, how does the self-cleavage read?
Its self-cleavage is 0.06.

With UAACAGGGGGCCACAGCAGCGGCGUUCACGUCGCAGCCCCCGUCAGAUUCUGGUGAAUCUGCGAAUUCUGCCGUAUAUCUC [A20C A21G U41C U72C] as the variant, how does the self-cleavage read?
Its self-cleavage is 0.09.

For UAACAGGGGGCCACAGCAGCUGCGUUCACGUCGCUGCCCCUUUCAGAUUCUGGUGAAUCUGCGAAUUCCGCUGUAUAUCCC [A20C A21U A35U G42U U69C U80C], which self-cleavage is on record?
Its self-cleavage is 0.11.

For UAACAGGGGGCCACAGCAGCUGCGUUCACGUCGCAGCCCCUGUCAGAUUCUGGUGAAUCUGGGAAUUCUGCUGUAUUUCUC [A20C A21U C62G A77U], which self-cleavage is on record?
Its self-cleavage is 0.07.

With UAACAGGGGGCCACAGCAGCUGCGCUCACGUCGCAGCCCCUGUCAGAUUCUGGUGAAUCCGCGAAUUCUGCUGUAUAUCUC [A20C A21U U25C U60C] as the variant, how does the self-cleavage read?
Its self-cleavage is 0.05.

With UAACAGGGGGCCACAGCAGCAGCGUUCGCGUCGCAGCCCCUUUCAGAUUCUGGUGAAUCUGCGAAUUCUGCUGUAUAUCUC [A20C A28G G42U] as the variant, how does the self-cleavage read?
Its self-cleavage is 0.08.

Which self-cleavage does the source give for UAACAGGGGGCCACAGCAGCAGCGUUCGCGUCGCAGCCCCCGUCAGAUUCUGGUGAAUCUGCGAAUUCUGCUGUAUAUCUC [A20C A28G U41C] here?
Its self-cleavage is 0.07.

For UAACAGGGGGCCACAGCAGCAGCGUUCGCGUCGCAGCCCCUGUCAGAUUCUGGUGAAUCUGCGAAUUCUGCUGUAUACCUC [A20C A28G U78C], which self-cleavage is on record?
Its self-cleavage is 0.17.
